“And” between values parts separate entries of the source, which are not always exact repeats. Identical values can stand only once.
Assays:
STAT3-mCherry [1] = biological target: STAT3-mCherry (UniProt P40763); assay: Number and Brightness (N&B) analysis; moment analysis of confocal frame scans (100 frames, 256 x 256 pixels) of live HeLa cells expressing the fluorescent fusion protein; brightness calibrated against free GFP, YFP or mCherry; cells unstimulated or stimulated with 10 nM oncostatin M (15-60 min), or treated with trichostatin A or actinomycin D
STAT3-mCherry [2] = biological target: STAT3-mCherry (UniProt P40763); assay: pair correlation of molecular brightness (pCOMB); pair correlation of brightness fluctuations along a 64-pixel confocal line scan from cytoplasm to nucleus of live HeLa cells; amplitude calibrated against free GFP, YFP or mCherry; cells stimulated with 10 nM oncostatin M for 15 min
STAT3-GFP = STAT3-GFP (UniProt P40763); assay: Number and Brightness (N&B) analysis; moment analysis of confocal frame scans (100 frames, 256 x 256 pixels) of live HeLa cells expressing the fluorescent fusion protein; brightness calibrated against free GFP, YFP or mCherry; cells unstimulated or stimulated with 10 nM oncostatin M (15-60 min), or treated with trichostatin A or actinomycin D
STAT3-YF-GFP = STAT3-YF-GFP (UniProt P40763); assay: pair correlation of molecular brightness (pCOMB); pair correlation of brightness fluctuations along a 64-pixel confocal line scan from cytoplasm to nucleus of live HeLa cells; amplitude calibrated against free GFP, YFP or mCherry; cells stimulated with 10 nM oncostatin M for 15 min

STAT3-mCherry, sequence (chain, as listed by the source): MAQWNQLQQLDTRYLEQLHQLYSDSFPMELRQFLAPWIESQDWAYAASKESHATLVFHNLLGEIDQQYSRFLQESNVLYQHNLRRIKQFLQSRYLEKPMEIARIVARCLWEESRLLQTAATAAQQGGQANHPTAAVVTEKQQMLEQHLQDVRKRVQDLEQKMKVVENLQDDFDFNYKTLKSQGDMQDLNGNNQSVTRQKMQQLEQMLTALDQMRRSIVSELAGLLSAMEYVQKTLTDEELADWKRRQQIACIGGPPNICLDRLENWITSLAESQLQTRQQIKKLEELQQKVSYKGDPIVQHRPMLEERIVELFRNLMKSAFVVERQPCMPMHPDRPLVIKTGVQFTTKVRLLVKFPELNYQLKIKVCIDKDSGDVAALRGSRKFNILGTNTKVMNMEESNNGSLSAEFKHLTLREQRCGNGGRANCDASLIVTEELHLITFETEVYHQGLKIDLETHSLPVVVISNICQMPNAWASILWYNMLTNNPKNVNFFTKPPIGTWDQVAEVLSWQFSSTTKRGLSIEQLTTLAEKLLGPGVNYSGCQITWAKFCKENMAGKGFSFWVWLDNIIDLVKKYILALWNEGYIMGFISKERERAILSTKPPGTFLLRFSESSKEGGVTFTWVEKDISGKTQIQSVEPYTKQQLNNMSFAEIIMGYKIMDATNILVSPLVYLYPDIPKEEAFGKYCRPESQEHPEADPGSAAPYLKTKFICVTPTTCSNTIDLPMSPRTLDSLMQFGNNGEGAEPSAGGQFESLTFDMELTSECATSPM
STAT3-YF-GFP, sequence (chain, as listed by the source): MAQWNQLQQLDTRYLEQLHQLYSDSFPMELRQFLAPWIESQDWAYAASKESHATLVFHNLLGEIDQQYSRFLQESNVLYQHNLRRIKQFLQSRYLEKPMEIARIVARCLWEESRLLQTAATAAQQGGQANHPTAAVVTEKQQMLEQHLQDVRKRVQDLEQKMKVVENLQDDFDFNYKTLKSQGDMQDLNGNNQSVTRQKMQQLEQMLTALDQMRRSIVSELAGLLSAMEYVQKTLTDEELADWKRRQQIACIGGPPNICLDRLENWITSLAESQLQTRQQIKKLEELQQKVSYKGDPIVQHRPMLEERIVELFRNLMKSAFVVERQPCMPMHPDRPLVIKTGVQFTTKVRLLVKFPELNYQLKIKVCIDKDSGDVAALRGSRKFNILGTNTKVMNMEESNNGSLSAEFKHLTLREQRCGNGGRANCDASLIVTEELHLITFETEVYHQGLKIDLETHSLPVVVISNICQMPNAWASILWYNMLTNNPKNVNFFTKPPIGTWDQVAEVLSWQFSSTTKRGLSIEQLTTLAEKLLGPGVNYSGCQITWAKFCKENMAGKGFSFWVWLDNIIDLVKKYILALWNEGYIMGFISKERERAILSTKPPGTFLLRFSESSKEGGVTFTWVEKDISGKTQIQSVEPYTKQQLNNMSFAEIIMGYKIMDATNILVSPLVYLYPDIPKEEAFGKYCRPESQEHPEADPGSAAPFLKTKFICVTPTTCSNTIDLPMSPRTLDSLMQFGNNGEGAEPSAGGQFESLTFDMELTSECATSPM

## STAT3-mCherry (a stretch of the chain, sequence left out) (natural protein; other documents disagree on this pair)
STAT3-mCherry [1]
  stoichiometry N: 2 and 4
STAT3-mCherry [2]
  stoichiometry N: 2 and 4

## STAT3-GFP (a stretch of the chain, sequence left out) (natural protein; other documents disagree on this pair)
STAT3-GFP
  stoichiometry N: 2 and 4

## STAT3-YF-GFP (a stretch of the chain, sequence left out) (natural protein; other documents disagree on this pair)
STAT3-YF-GFP
  stoichiometry N: 2

From article PMC4820838
